The source gives no read counts; variants with many changes may rest on few reads.
B1: CPEB3 Ribozyme (parent)
chain: UAACAGGGGGCCACAGCAGAAGCGUUCACGUCGCAGCCCCUGUCAGAUUCUGGUGAAUCUGCGAAUUCUGCUGUAUAUCUC

Variants of: B1
Assay: self-cleavage, relative activity (ratio to wild type); higher = more cleavage; in vitro, sequencing
Outline: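 Barcoded CPEB3 ribozyme mutants, produced by rounds of error-prone PCR, self-cleaved while being transcribed with T7 RNA polymerase for 5 hours at 37°C and during a subsequent 15 min DNase I step before EDTA was added. Sequencing of template-switched cDNA on Illumina gave cleaved and total reads, and DNA sequencing assigned barcodes to variants. Each variant's relative activity is its cleaved/total read fraction divided by the unmutated ribozyme's fraction, averaged across three batches. A variant needed a minimum of 5 reads.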
With G10A U54G G55U U76C the self-cleavage was 0.12.
In the case of G10A U58C A64G, the self-cleavage is reported as 0.16.
In the case of G10A U58C U69C, the self-cleavage is reported as 0.14.
With G10A U58C U76C A77U the self-cleavage was 0.04.
Variant G10A U58G U78C has a self-cleavage of 0.34.
In the case of G10A U60A U80C, the self-cleavage is reported as 0.06.
With G10A U60C A65G U78C the self-cleavage was 0.12.
G10C A13C A20G A45G U48C showed a self-cleavage of 0.05.
G10C A13C U31G U49C A56G showed a self-cleavage of 0.12.
In the case of G10C A13G U25C C38U A57G U80C, the self-cleavage is reported as 0.06.
G10C A13U A20G A45U U58C A65G showed a self-cleavage of 0.04.
In the case of G10C A13U A28G U69A, the self-cleavage is reported as 0.14.
With G10C A13U U43A A56G the self-cleavage was 0.11.
In the case of G10C A15G A18G C29G G33C U41C, the self-cleavage is reported as 0.06.
With G10C A15G A20G G55A the self-cleavage was 0.25.
Work on G10C A15G C29U G52C U54A U69A yielded a self-cleavage of 0.05.
In the case of G10C A15G G24C U26C A64G, the self-cleavage is reported as 0.18.
With G10C A15G U26C U66C U69A the self-cleavage was 0.05.
For G10C A15G U43C A45C U66A U67C, the self-cleavage was 0.2.
With G10C A15G U54G A56G A65U the self-cleavage was 0.07.
In the case of G10C A15U C50A U54A A56G, the self-cleavage is reported as 0.18.
In the case of G10C A15U U25C U26C U58A, the self-cleavage is reported as 0.11.
In the case of G10C A15U U43A A64G U76A, the self-cleavage is reported as 0.29.
For G10C A18G A45G U48C, the self-cleavage was 0.22.
With G10C A18G U43A A64G the self-cleavage was 0.07.
In the case of G10C A18U U43C, the self-cleavage is reported as 0.14.
For G10C A18U U48C, the self-cleavage was 0.03.
G10C A20C U51A U78C showed a self-cleavage of 0.19.
Variant G10C A20G G61U has a self-cleavage of 0.09.
G10C A20G U25C showed a self-cleavage of 0.24.
With G10C A20G U31G U54C the self-cleavage was 0.18.
G10C A20G U54C gave a self-cleavage of 0.07.
For G10C A20U A28G C34G U41C A64G U76C, the self-cleavage was 0.03.
G10C A20U A65G gave a self-cleavage of 0.08.
G10C A20U U31C U80C gave a self-cleavage of 0.07.
G10C A20U U43C showed a self-cleavage of 0.08.
G10C A21G A57G U72A showed a self-cleavage of 0.04.
Variant G10C A21G U49A has a self-cleavage of 0.21.
G10C A21G U51A U60C U72C gave a self-cleavage of 0.08.
Variant G10C A21G U58C U72C has a self-cleavage of 0.34.
With G10C A21G U67C the self-cleavage was 0.28.
G10C A28G U54A gave a self-cleavage of 0.39.
G10C A28U A47G A56G U76C gave a self-cleavage of 0.06.
For G10C A35G C40G A47C, the self-cleavage was 0.12.
Work on G10C A35G U41G A45G yielded a self-cleavage of 0.14.
G10C A45G A64G U69C U72A showed a self-cleavage of 0.09.
With G10C A45G U58G the self-cleavage was 0.19.
G10C A45U A65G showed a self-cleavage of 0.12.
For G10C A45U G73A, the self-cleavage was 0.11.
In the case of G10C A45U U74C, the self-cleavage is reported as 0.17.
In the case of G10C A56G C68A, the self-cleavage is reported as 0.33.
With G10C A57G U69C the self-cleavage was 0.1.
For G10C C11U A20G A77U, the self-cleavage was 0.09.
G10C C23U U43C U69C showed a self-cleavage of 0.11.
G10C C23U U69C A75U gave a self-cleavage of 0.15.
With G10C C27A A56U A57G U69C the self-cleavage was 0.07.
G10C C34U A64U gave a self-cleavage of 0.05.
In the case of G10C C40U U43C U60A U66C U80C, the self-cleavage is reported as 0.12.
Variant G10C C40U U67C has a self-cleavage of 0.09.
In the case of G10C C40U U80C, the self-cleavage is reported as 0.22.
G10C C62U U78A gave a self-cleavage of 0.13.
With G10C G16A A35G A57U A65G the self-cleavage was 0.09.
G10C G16A U69C showed a self-cleavage of 0.12.
G10C G16U A18G U72C showed a self-cleavage of 0.08.
G10C G19A U26C A35G A45G showed a self-cleavage of 0.05.
For G10C G19U A20U U72C U78C, the self-cleavage was 0.04.
Variant G10C G33A U69C has a self-cleavage of 0.06.
In the case of G10C G36A U69A, the self-cleavage is reported as 0.05.
Variant G10C G42A U78A has a self-cleavage of 0.16.
G10C U25A U41A U60G showed a self-cleavage of 0.05.
Work on G10C U25C A35C U49A yielded a self-cleavage of 0.09.
For G10C U25C U43C, the self-cleavage was 0.25.
Work on G10C U25C U80C yielded a self-cleavage of 0.09.
G10C U25G U41G C62U U66C showed a self-cleavage of 0.14.
Variant G10C U26A A45C A47U U58C C59U A65G has a self-cleavage of 0.16.
Work on G10C U26A U54A U60A U74C yielded a self-cleavage of 0.09.
G10C U26C A45G U51C U72C showed a self-cleavage of 0.19.
For G10C U26C A47U A64G A65G, the self-cleavage was 0.06.
Work on G10C U26C C32G A35U U49C U54C G63A yielded a self-cleavage of 0.05.
Work on G10C U26C U41C U54C yielded a self-cleavage of 0.13.
In the case of G10C U26C U51C A75G, the self-cleavage is reported as 0.12.
G10C U26C U66C gave a self-cleavage of 0.17.
Work on G10C U31C A45G G52A C62G U69C U78C yielded a self-cleavage of 0.06.
For G10C U31C C34A A64G, the self-cleavage was 0.11.
